From publication PMC10313165, “Imaging single CaMKII holoenzymes at work by high-speed atomic force microscopy” (Science Advances, 2023) come the findings set out here.

Data set [1] concerns the target T1, rat calmodulin, 6xHis-tagged (Ca^2+-bound in the assays) (rat (Rattus norvegicus), UniProt P0DP29).
T1 construct: calmodulin, rat (Rattus norvegicus), synthesized gene (Eurofins) in the pRSET vector; Used at 800 nM with 1 mM CaCl2; also called CaM; Ca^2+/CaM; source: E. coli (DH5α), purified (Ni-NTA column)
The data set can be described thus: high-speed atomic force microscopy; 50 nM CaMKII and 800 nM CaM premixed in buffer B with 1 mM CaCl2 and 1 mM ATP, 30 °C, 5 min; imaged in buffer A with 1 mM CaCl2 and 1 mM ATP on pillar[5]arene-modified mica, 24-26 °C. To be noted: both partners purified.

Data set [2] concerns the molecule itself. In words: high-speed atomic force microscopy; single holoenzyme particles on mica modified with cationic pillar[5]arene; buffer A (50 mM tris-HCl pH 7.4, 15 mM KCl, 10 mM MgCl2, 10% glycerol) with the additives of each state; 24-26 °C; kinase domains seen around a central hub assembly.

B1: pT286 rat CaMKIIα T305A/T306V holoenzyme (enzyme)
chain: not shown
modifications: phosphothreonine at 286 (pT286)
notes: CaMKIIα, rat (Rattus norvegicus), […], with T305A and T306V; also called CaMKIIα_(T305A/T306V) + ATP; source: HEK293, transfected, purified (Strep-Tactin Sepharose, then NTA column); treated with Ca^2+/CaM and 1 mM ATP
In the case of B1, the binding result in data set [1] and in data set [2] was “binds” each time.

B2: rat CaMKIIα T305A/T306V holoenzyme (not phosphorylated) (enzyme)
chain: not shown
notes: CaMKIIα, rat (Rattus norvegicus), […], with T305A and T306V; source: HEK293, transfected, purified (Strep-Tactin Sepharose, then NTA column)
As to B2, the binding result in data set [2] is given as “binds”.

B3: rat CaMKIIα T286A holoenzyme (enzyme)
chain: not shown
notes: CaMKIIα, rat (Rattus norvegicus), […], with T286A; source: HEK293, transfected, purified (Strep-Tactin Sepharose, then NTA column)
In the case of B3, the binding result in data set [1] and in data set [2] was “binds” in each case.
